# According to publication PMC4336329 (PLoS ONE, 2015):
# Screen size: about 310,000 compounds; about 14,000 (4.5%) showed an effect of 50% or more. Effects have a minus sign here. This is one part of the list.
# Target: human ether-à-go-go-related gene (hERG) potassium channel (human, UniProt Q12809)
# Experiment: primary screen, population patch clamp on CHO cells stably expressing hERG
# 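Further: peak tail current of the secondary pulse compared with the same well before compound.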
# Sequence of human ether-à-go-go-related gene (hERG) potassium channel (Q12809 whole entry, looked up): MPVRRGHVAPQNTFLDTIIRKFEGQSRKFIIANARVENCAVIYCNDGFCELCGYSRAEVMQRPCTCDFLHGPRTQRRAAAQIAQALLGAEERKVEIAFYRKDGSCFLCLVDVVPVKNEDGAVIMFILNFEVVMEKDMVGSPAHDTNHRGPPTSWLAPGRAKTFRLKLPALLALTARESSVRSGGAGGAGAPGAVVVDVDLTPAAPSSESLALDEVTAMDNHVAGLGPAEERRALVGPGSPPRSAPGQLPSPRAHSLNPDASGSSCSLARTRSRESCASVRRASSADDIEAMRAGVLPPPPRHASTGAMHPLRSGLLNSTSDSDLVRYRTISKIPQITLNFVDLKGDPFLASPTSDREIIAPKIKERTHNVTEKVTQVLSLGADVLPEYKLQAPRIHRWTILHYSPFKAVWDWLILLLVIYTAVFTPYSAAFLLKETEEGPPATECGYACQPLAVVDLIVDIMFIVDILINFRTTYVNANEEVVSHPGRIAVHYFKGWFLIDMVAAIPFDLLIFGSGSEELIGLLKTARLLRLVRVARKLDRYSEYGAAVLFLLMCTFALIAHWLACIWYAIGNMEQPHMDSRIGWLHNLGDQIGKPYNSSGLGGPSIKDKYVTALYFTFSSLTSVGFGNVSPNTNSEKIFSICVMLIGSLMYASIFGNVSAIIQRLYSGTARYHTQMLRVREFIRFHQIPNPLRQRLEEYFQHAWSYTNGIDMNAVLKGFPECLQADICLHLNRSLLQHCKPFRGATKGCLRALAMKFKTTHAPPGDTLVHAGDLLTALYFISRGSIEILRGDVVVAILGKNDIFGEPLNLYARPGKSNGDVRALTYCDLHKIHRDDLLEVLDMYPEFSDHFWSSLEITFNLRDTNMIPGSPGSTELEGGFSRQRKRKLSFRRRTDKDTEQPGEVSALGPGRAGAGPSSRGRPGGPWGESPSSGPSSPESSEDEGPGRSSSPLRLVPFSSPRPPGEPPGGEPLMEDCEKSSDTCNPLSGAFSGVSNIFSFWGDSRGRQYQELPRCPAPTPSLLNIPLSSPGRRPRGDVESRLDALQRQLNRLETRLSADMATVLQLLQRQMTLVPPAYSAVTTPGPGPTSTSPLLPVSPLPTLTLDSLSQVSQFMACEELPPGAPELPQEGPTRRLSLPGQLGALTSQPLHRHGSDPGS
row,Compound,"hERG current change (%, negative = inhibition) at 10uM"
1,COc1ccc(-n2c(=O)c3ccccc3n(CC(=O)NC3CCCCC3)c2=O)cc1OC,7.46%
2,COc1cc(/C=C2/SC(=O)NC2=O)ccc1Oc1ccc([N+](=O)[O-])cc1[N+](=O)[O-],9.34%
3,O=C(Cc1ccccc1F)Nc1nc(-c2ccc(F)cc2)cs1,-3.01%
4,CCOC(=O)CN1C(c2ccccc2O)Nc2ccc(Br)cc2C1c1ccccc1 (centres unmarked),-7.83%
5,COc1cc(/C=N/NC(=O)C(=O)NCc2ccco2)cc(Br)c1O,2.7%
6,Cc1cc(C)n(C(=O)c2ccc(S(=O)(=O)NCC3CCCO3)cc2)n1 (centres unmarked),-14.8%
7,O=C(NCc1nnc(SCC(=O)N2CCCC2)o1)c1ccc(F)cc1,14.3%
8,CN(C)S(=O)(=O)Oc1ccc(Cl)cc1C(=O)Nc1cccc(C(F)(F)F)c1,-9.06%
9,CCC(c1nnnn1Cc1ccc(F)cc1)N1CCN(C2CCCCC2)CC1.Cl (centres unmarked),-53%
10,O=C(O)c1ccccc1-c1ccccc1C(=O)Nc1ccc(-c2nc3cc(Cl)ccc3o2)cc1,35.9%
11,Cc1ccc(CNC(=O)CSc2nc3ccsc3c(=O)n2NC(=O)c2ccccc2)cc1,-9.41%
12,CCc1cn([C@H]2C[C@H](O)[C@@H](CO)O2)c(=O)[nH]c1=O,7.05%
13,CCc1cccc(NC(=O)Nc2cccs2)c1,12.9%
14,C=CCNc1nc(-c2ccc(OC)cc2OC)cs1.Cl,-14.4%
15,Cc1c(Cl)cnc(NC(=O)COC(=O)c2ccc3ncsc3c2)c1Cl,-2.49%
16,COCCN1C(=O)c2ccc(C(=O)O)cc2C1=O,14.6%
17,CCOc1cccc(C(=O)N/N=C/c2coc3ccccc3c2=O)c1,10.6%
18,Cc1ccccc1NC(=O)CC1C(=O)NCCN1C(=O)c1cccc(Cl)c1 (centres unmarked),15.7%
19,CCc1c(C)nc(N)nc1N1N=C1SCCOc1ccccc1,-4.86%
20,COc1ccc(S(=O)(=O)N(Cc2ccc(OC)c(OC)c2)Cc2ccco2)cc1,-25.3%
21,O=C1C2Sc3[nH]c(=O)sc3C(c3cc([N+](=O)[O-])ccc3O)C2C(=O)N1c1ccccc1 (centres unmarked),8.68%
22,Cc1ccc(S(=O)(=O)NCC(=O)N2CCN(S(=O)(=O)c3ccc(Cl)cc3)CC2)cc1C,6.6%

row,Compound,"hERG current change (%, negative = inhibition) at 10uM"
1,Cc1ccc(-n2nc(C)c(C(=O)Nc3cccc(C(=O)NC4CC4)c3)n2)c(C)c1,7.57%
2,Cc1c(/C(O)=C2\C(=O)C(=O)N(CCN(C)C)C2c2ccccc2)cnn1-c1ccccc1 (centres unmarked),17.2%
3,Cc1sc2ncnc(SCC(=O)c3ccc4c(c3)OCCO4)c2c1-c1ccccc1,-8.25%
4,O=C(COC(=O)c1cc(S(=O)(=O)N2CCOCC2)ccc1O)NCC1CCCO1 (centres unmarked),-0.0925%
5,C=CCc1c(C)nc(C)nc1N/N=C/c1ccc(N(C)C)cc1,-32.6%
6,O=C(CSC(=S)N1CCCC1)N1CCN(S(=O)(=O)c2cccc([N+](=O)[O-])c2)CC1,5.69%
7,COc1ccc2cc(/C=N/NC(=O)c3c(Cl)cnn3C)c(Cl)nc2c1,9.69%
8,CC1=C(C(N)=O)C(c2ccccc2)n2nc(-c3cccs3)nc2N1 (centres unmarked),-6.66%
9,COc1cccc(CN2CCN(Cc3cccc4c3OCO4)CC2CCO)c1 (centres unmarked),-23.2%
10,COc1ccccc1/C=C/CN1CCCC(CO)(CCc2ccccc2)C1 (centres unmarked),-74.7%
11,Cc1nc([N+](=O)[O-])c(N2CCN(C)CC2)n1Cc1ccccc1,-10.4%
12,CC(=O)c1c(C)[nH]c(C(=O)N2CCN(C(=O)c3ccco3)CC2)c1C,14.2%
13,C/C(=N\NC(=S)NC(C)C)c1ccccc1,-9.16%
14,COc1ccc(CNc2ncccc2[N+](=O)[O-])cc1,4.68%
15,Cc1noc(C)c1COC(=O)c1ccc(N(C)C)cc1,-9.83%
16,CCCC(=O)Nc1ccc(-c2nc3cc(C)c(C)cc3o2)cc1,13.8%
17,Cc1cc(C)nc(NS(=O)(=O)c2ccc(NS(=O)(=O)c3ccccc3)cc2)n1,1.59%
18,CC(C)(C)NC(=O)C1CC(=O)N(CCc2ccc(F)cc2)C1 (centres unmarked),15.7%
19,Cc1nc(SCC(N)=O)c(C#N)c(C)c1C,9.82%
20,O=S(=O)(Nc1cccc(S(=O)(=O)N2CCOCC2)c1)c1ccc2c(c1)OCCO2,5.32%
21,O=C(COc1ccccc1)Nc1nc2cc3c(cc2s1)OCO3,15.4%
22,Cc1ccc(N(Cc2cc3ccccc3[nH]c2=O)S(C)(=O)=O)cc1,11.3%

row,Compound,"hERG current change (%, negative = inhibition) at 10uM"
1,O=C(Cc1ccc(S(=O)(=O)N2CCOCC2)s1)Nc1ccccc1N1CCOCC1,-3.36%
2,COc1ccc(S(=O)(=O)N2CCOC23CCN(S(=O)(=O)c2c(C)cc(C)cc2C)CC3)cc1,-7.82%
3,COc1ccc(NC(=O)c2c[nH]n3c(=O)cc(C4CCN(C(=O)OC(C)(C)C)CC4)nc23)cc1Cl,22.4%
4,Cc1snc(SCC(=O)c2ccc(Cl)cc2)c1C#N,2.99%
5,Cc1cc2c(NC3CCCCC3)ncnc2s1.Cl,4.18%
6,CCN1C(=NCc2ccc(OC)cc2)N[C@@H](c2ccccc2)C(C(=O)OC)=C1C,-28.9%
7,COc1cc2c(cc1NC(=O)C(C)OC(=O)/C=C/c1ccc(OC(F)F)cc1)oc1ccccc12 (centres unmarked),7.07%
8,Cc1ccnc(NC(=O)c2cc(F)c(F)cc2Cl)n1,17.8%
9,COc1ccc(C2NCCO2)cc1OC (centres unmarked),6.18%
10,O=C(CSc1cccc[n+]1[O-])Nc1cccc(S(=O)(=O)NC2=NCCCCC2)c1,54.8%
11,O=C(COC(=O)CSc1ccc(F)cc1)NC1CCCCCC1,-3.11%
12,Cn1nccc1NC(=O)Nc1cccc(Cl)c1,14.3%
13,COc1ccc(OC)c(S(=O)(=O)N2CCC(C(=O)Nc3cccc(C(F)(F)F)c3)CC2)c1,-16.6%
14,CC1(C)C(=O)NCCN1C(=O)CCC(=O)O,-5.78%
15,COc1ccc(CCCc2nnc(SCC(=O)NN)o2)c(C)c1,11.9%
16,C=CCNC(=S)NNc1nc(Nc2ccccc2)nc(N2CCCCC2)n1,10.3%
17,Cc1c(C)n2c(SCC(=O)N3CCN(c4ccccc4)CC3)nnc2[nH]c1=O,-4.95%
18,Cc1cccc(N2CCN(S(=O)(=O)c3cc4c(cc3Cl)NC(=O)CO4)CC2)c1C,12.9%
19,COc1cccc(CNS(=O)(=O)c2cc3c4c(c2)CCC(=O)N4CCC3)c1,-7.33%
20,CCOC(=O)CC1C(=O)NCCN1Cc1cccc(C(F)(F)F)c1 (centres unmarked),10.3%
21,CCOC(=O)CN(C(=O)COc1nc(-c2ccccc2)cc(C)c1C#N)c1cccc(OC)c1,-2.82%
22,CNC(=S)N1CCN(c2ccccn2)CC1,-9.16%

row,Compound,"hERG current change (%, negative = inhibition) at 10uM"
1,Cc1cc(S(=O)(=O)N(Cc2ccc3c(c2)OCO3)CC2CCCO2)ccc1-n1cnnn1 (centres unmarked),-21.9%
2,Cc1ccc(S(=O)(=O)c2nc(S(C)(=O)=O)sc2N2CCOCC2)cc1,-4.32%
3,O=C(Cn1nc(-c2ccccc2)ccc1=O)Nc1cccc(NC(=O)c2ccccn2)c1,-0.657%
4,COc1ccccc1C(=O)COC(=O)/C(=C/c1ccccc1)NC(C)=O,2.19%
5,CC(NC(=O)C1CCN(S(=O)(=O)N2CCCCCC2)CC1)c1ccccc1 (centres unmarked),-13%
6,C=CCN=C(NC#N)SCC(=O)NCc1ccccc1,8.47%
7,CCOc1cccc(C2/C(=C(/O)c3ccc4c(c3)CC(C)O4)C(=O)C(=O)N2CCCn2ccnc2)c1 (centres unmarked),24.6%
8,O=C(COc1ccccc1Cl)Nc1ccc(S(=O)(=O)N2CCOCC2)cc1,15.4%
9,CC(=O)Nc1sc(C)c(C)c1C(=O)OCC(=O)N(CC(C)C)C1CCS(=O)(=O)C1 (centres unmarked),-16.3%
10,O=C(NCc1ccccc1)C(c1ccco1)N(C(=O)c1cnccn1)c1ccc(F)cc1 (centres unmarked),10.5%
11,CC(CCc1ccccc1)NC(=O)CSc1nnnn1C (centres unmarked),1.89%
12,COc1ccc(CC(=O)NCCc2ccc(OC)c(OC)c2)cc1,10.4%
13,COc1cccc(N(CC(=O)Nc2ccc3c(c2)OCO3)S(=O)(=O)c2ccccc2)c1,8.29%
14,COc1ccc(OC2C(=O)N(c3ccc(F)cc3)C2c2ccc(OC)c(OC)c2)cc1 (centres unmarked),1.64%
15,Clc1ccc(-c2nc3ccccn3c2CN2CCCCC2)cc1,-19.9%
16,CC(=O)Oc1ccccc1C(=O)O,3.63%
17,Cc1ncc(C[n+]2csc(CCO)c2C)c(N)n1.[Cl-],15.4%
18,Cc1ccc(NC(=O)Cn2nnc(C(=O)Nc3ccc(F)c(Cl)c3)c2N)cc1,6.89%
19,O=C(c1ccco1)N1CCN(Cc2nnc(-c3cccc(Br)c3)o2)CC1,-62.2%
20,CCN(CC(=O)Nc1ccccc1OC)C(=O)C1CCCC1,0.547%
